Assay results published in article PMC4336329 (PLoS ONE, 2015).
In all, about 310,000 compounds went through this assay and about 14,000 (4.5%) showed an effect of 50% or more. The effect is printed as a negative number. The list shows a part of the results.

These compounds were tested against human ether-à-go-go-related gene (hERG) potassium channel (human, UniProt Q12809) (assay: primary screen, population patch clamp on CHO cells stably expressing hERG).
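Further: peak tail current of the secondary pulse compared with the same well before compound.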

human ether-à-go-go-related gene (hERG) potassium channel, sequence (Q12809 whole entry, looked up): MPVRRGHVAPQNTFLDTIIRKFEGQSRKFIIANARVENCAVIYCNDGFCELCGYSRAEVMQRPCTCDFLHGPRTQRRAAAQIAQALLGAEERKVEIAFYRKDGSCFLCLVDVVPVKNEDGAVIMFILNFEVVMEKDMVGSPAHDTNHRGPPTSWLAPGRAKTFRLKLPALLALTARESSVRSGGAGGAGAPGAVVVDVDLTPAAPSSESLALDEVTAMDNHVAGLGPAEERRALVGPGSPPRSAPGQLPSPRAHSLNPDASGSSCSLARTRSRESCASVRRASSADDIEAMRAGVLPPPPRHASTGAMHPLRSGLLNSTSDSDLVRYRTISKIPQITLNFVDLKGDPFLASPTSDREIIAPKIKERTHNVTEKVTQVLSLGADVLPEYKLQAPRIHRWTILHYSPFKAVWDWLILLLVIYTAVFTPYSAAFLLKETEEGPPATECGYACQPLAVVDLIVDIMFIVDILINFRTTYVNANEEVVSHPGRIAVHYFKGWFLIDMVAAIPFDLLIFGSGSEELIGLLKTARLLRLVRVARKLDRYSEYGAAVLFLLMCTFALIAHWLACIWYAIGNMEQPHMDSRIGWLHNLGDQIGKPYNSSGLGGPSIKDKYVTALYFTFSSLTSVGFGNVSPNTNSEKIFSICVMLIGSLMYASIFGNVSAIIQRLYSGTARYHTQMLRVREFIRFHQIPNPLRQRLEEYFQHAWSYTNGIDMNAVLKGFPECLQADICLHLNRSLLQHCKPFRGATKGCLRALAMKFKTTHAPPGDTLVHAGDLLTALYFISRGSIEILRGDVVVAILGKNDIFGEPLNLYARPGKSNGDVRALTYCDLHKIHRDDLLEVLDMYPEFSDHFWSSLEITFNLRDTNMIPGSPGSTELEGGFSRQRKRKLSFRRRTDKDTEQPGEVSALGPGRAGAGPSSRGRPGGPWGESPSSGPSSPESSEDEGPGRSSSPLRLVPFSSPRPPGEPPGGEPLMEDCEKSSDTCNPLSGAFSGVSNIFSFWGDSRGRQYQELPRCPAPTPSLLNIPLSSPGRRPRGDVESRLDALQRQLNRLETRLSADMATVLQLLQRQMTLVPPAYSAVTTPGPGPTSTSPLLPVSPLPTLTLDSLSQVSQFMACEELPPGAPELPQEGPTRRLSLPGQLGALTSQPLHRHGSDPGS

SMILES | hERG current change (%, negative = inhibition) at 10uM
C[C@@H](NC(=O)c1nc[nH]c1C(=O)NCC(=O)OC(C)(C)C)c1ccccc1 | -0.16%
CCN(CC)CCNCc1cc(Br)ccc1OCC(=O)NCc1ccccc1.Cl | -83.2%
Cc1ccc(OCC(=O)NCCNC(=O)c2ccco2)cc1 | 9.1%
CCN1CNC(=S)N(c2ccccc2OC)C1 | 16%
C/C(=N\NC(=O)c1cc(-c2ccc(C)s2)[nH]n1)c1ccco1 | -7.34%
Cc1cccc(OCC(=O)Nc2ccc(N3CCN(C(=O)c4ccccc4)CC3)cc2)c1 | -43.3%
CCO[C@@H]1OC(C(=O)N2CCN(Cc3ccc4c(c3)OCO4)CC2)=C[C@H](c2ccc(C(F)(F)F)cc2)[C@H]1CCCO | -13.8%
Cc1cc(C)c(-n2nnnc2SC(C)C)c(C)c1 | -2.54%
Nn1c(N2CCCCC2)nc2ccccc21 | 6.16%
COCc1ccc(CN2CCCC(C(=O)Nc3ccc(-c4cccc(OC)c4)cc3)C2)o1 (stereo not drawn) | -0.711%
CCn1c(O)c(N=NC(=O)C(O)c2ccccc2)c2ccccc21 (stereo not drawn) | 1.23%
COc1ccccc1CNC(=O)c1cccc(S(=O)(=O)N2CCN(C)CC2)c1 | -8.01%
Cc1cccc(NC(=O)Cc2ccc(NC3=NC4CS(=O)(=O)CC4S3)cc2)c1 (stereo not drawn) | 2.28%
C(=C\c1ccccc1)/CNCC1CCCO1.Cl (stereo not drawn) | 7.95%
Cc1ccc(NC(=O)c2sc(Cl)nc2-c2ccccc2)cc1 | 18.2%
O=C(N/N=C/c1cc([N+](=O)[O-])c(N2CCOCC2)cc1N1CCOCC1)c1cccnc1 | -22.4%
COc1ccc([N+](=O)[O-])cc1N(CC(O)Cn1nnc2ccccc21)S(=O)(=O)c1ccc(C)cc1 (stereo not drawn) | -29.4%
COc1ccc(CC(NC(C)=O)C(=O)NC2CCN(c3ncccc3[N+](=O)[O-])CC2)cc1 (stereo not drawn) | 4.65%
O=c1oc2c(CN3CCOCC3)c(O)ccc2c2c1CCCC2 | -4.32%
S=C(NCC1CC1)N/N=C/c1ccccc1Cl | 11.5%
CCOc1ccc2nc(NC(=O)Cn3[nH]c(=O)c4ccccc4c3=O)sc2c1 | -5.33%
CCC(C)NC(=O)Cn1nc([N+](=O)[O-])c(Cl)c1C (stereo not drawn) | -2.4%

SMILES | hERG current change (%, negative = inhibition) at 10uM
O=C(CNC(=O)c1ccco1)NCC(=O)OCc1cccc(C(=O)Oc2ccccc2)c1 | -3.88%
Cc1ccc(/C=C2\SC(=S)N(CCC(=O)N3CCOCC3)C2=O)cc1 | 12.1%
CC(=O)N1N=C(c2cccc([N+](=O)[O-])c2)OC1c1ccccc1Cl (stereo not drawn) | -25.8%
COc1ccc(Cl)cc1NC(=S)NCc1cccs1 | 3.26%
COc1ccc(C(=O)Nc2ccncc2)cc1OC | -6.96%
COCCC(=O)NC12CC3CC(CC(C3)C1)C2 | 5.74%
O=C(NCC(c1ccco1)N1CCCCC1)c1ccc(S(=O)(=O)Nc2ccccc2)cc1 (stereo not drawn) | -2.49%
COc1ccc(-c2csc(NC(=O)C3CC(=O)N(c4ccc5c(c4)OCCO5)C3)n2)cc1 (stereo not drawn) | 4.17%
CCCc1nc2ccccc2c(NC(=O)CN(CC)CC)c1CC.O=C(O)C(=O)O | 3.18%
Cc1cc(O)c(/C=N/c2ccccn2)c(=O)o1 | 9.41%
CCOC(=O)Cn1c(=O)cc(C)c2cccc(C)c21 | 7.27%
Cn1c(SCC2CCCO2)nnc1-c1ccncc1 (stereo not drawn) | 12.3%
Cc1cc(Br)ccc1OCCOCCN1CCCC1.O=C(O)C(=O)O | -60.7%
CCOc1cc(N2CCOCC2)c(OCC)cc1NC(=O)C1=COCCO1 | -36.1%
Cc1ccc(OCCn2cc(/C=C(\C#N)C(=O)NCC3CCCO3)c3ccccc32)cc1C (stereo not drawn) | 9.61%
O=C(CNc1ccccc1F)Nc1cccc2ccccc12 | 3.43%
CCc1noc(C)c1C(=O)OCC(=O)NC(=O)c1ccccc1 | 1%
O=C(CSCc1nc2ccccc2[nH]1)Nc1ccc2ccccc2c1 | 1.11%
CC(C)C(=O)Nc1cccc(NC(=O)c2ccc([N+](=O)[O-])cc2Cl)c1 | -25.2%
CC(=O)N1C(c2ccccc2O)C[C@]2(C)CC(=O)NC12 (stereo partly drawn) | 16.1%
CC(C)N1CC2=C(C1=O)C(c1ccc(O)cc1)NC(=O)N2C (stereo not drawn) | -2.5%
COc1cc(/C=C/C(=O)Nc2nnc(C(C)(C)C)s2)cc(OC)c1OC | 25.1%

SMILES | hERG current change (%, negative = inhibition) at 10uM
CCOC(=O)C1(N(CC)CC)Sc2cc(C)ccc2NC1=O (stereo not drawn) | 12.9%
CC(CC(=O)N1CCN(c2ccccc2)CC1)S(=O)(=O)c1ccc2c(c1)NC(=O)CS2 (stereo not drawn) | -34.6%
C/C(=N\NC(=O)c1ccn[nH]1)c1cn(C)nc1C | 5.21%
CCOc1ccccc1C1N=C(c2ccc(OC)cc2)CC(c2ccccc2O)N1 (stereo not drawn) | 1.02%
O=C(Nc1nnc(-c2ccncc2)o1)c1cccc(N2C(=O)CCC2=O)c1 | 4.56%
CC(C)CN(C(=O)c1cc2ccccc2o1)c1c(N)n(CC(C)C)c(=O)[nH]c1=O | 5.32%
Cc1cc(=O)oc2c1c(C)nn2-c1cccc(Cl)c1 | -3.81%
Cc1ccccc1C(=O)NC1CCN(CC(=O)NCc2ccccc2)CC1 | -29.8%
O=C(Nc1ccccc1N1CCCCC1)c1ccc(-c2cccc(Cl)c2)o1 | 26.1%
NNC(=O)CCc1ccc(S(=O)(=O)N2CCOCC2)cc1 | 19.3%
O=C(c1ccccc1)N1CCN(C(=O)c2cc3ccccc3oc2=O)CC1 | -5.6%
COCCCN1C(=O)N(c2ccc(F)cc2)C(=O)C1CC(=O)Nc1ccc(OC)cc1 (stereo not drawn) | 11.1%
O=C(Nc1ccc(NC(=O)c2ccccc2Br)cc1)c1ccccc1 | 10.3%
O=C(O)CC/C(=N/NC(=O)CNC(=O)c1ccc2c(c1)OCCO2)c1ccccc1 | 27.7%
COc1ccc(C(=O)N/N=C2\CCS(=O)(=O)c3ccc(F)cc32)cc1OC | 9.07%
O=C(Nc1ccc(N2CCOCC2)c(S(=O)(=O)Nc2ccc(Cl)cc2)c1)c1cnccn1 | -2.42%
Cc1ccnc(N2CCC(C(=O)NC3CCCCCC3)CC2)n1 | -9.64%
CC1CNCCN1S(=O)(=O)c1cccc2cnccc12.Cl (stereo not drawn) | 0.35%
O=c1c2c(nc3cc(-c4ccc(F)cc4)[nH]n13)CCC2 | 4.81%
COCCCNC(=O)c1ccccc1SC | 11.9%
Cc1cccc(NC(=S)NCC(c2cccnc2)N2CCOCC2)c1C (stereo not drawn) | 5.77%
O=C(COC(=O)c1cc([N+](=O)[O-])ccc1N1CCOCC1)Nc1c(Cl)cccc1Cl | -5.53%

SMILES | hERG current change (%, negative = inhibition) at 10uM
CC(C)NC(=O)c1c(CSc2ccccc2)noc1C(=O)NCc1ccccc1 | -0.839%
O=C(NNC(=S)NC(=O)c1cccs1)c1ccc(O)cc1 | 13%
C=CCSc1nnc2c(n1)OC=Nc1ccccc1-2 | -12.3%
O=C(CSc1nnc(-c2ccncc2)n1Cc1ccccc1)NC1CCCc2ccccc21 (stereo not drawn) | -37.5%
Cl.O=C(NCC(c1cccs1)N1CCOCC1)c1ccccc1NS(=O)(=O)c1cccc([N+](=O)[O-])c1 (stereo not drawn) | -4.78%
COc1cc(OC)cc(C(=O)NC(=S)N2CCCCC2c2cccnc2)c1 (stereo not drawn) | -7.98%
CCCOc1ccc(C(=O)N2CC3(CC(c4cccc(NC(=O)[C@@H]5CCC(=O)N5)c4)=NO3)C[C@H]2C(=O)NC2(C(N)=O)CC2)cc1 (stereo partly drawn) | 7.45%
CCOC(=O)CCN(Cc1cccs1)S(=O)(=O)c1ccc(Cl)cc1 | -38.2%
O=C(CS(=O)(=O)c1ccccc1)Nc1ncc([N+](=O)[O-])s1 | 13.8%
O=C(NCc1ccco1)c1ccc(N2CCCCC2)c([N+](=O)[O-])c1 | -24.2%
COc1ccc(C2C=C(Nc3ccccc3)C(=O)N2c2ccccc2)cc1OC (stereo not drawn) | 13.6%
CCOCCOC(=O)COC(=O)c1ccccc1NC(=O)c1ccccc1 | -12%
Cc1cc(N2CCOCC2)nc(SCc2c(Cl)cccc2Cl)n1 | -5.72%
COc1ccc(/C=N\n2nnc3ccccc32)cc1 | -0.417%
COc1cccc(OC)c1C(=O)Nc1ccc(NC(=O)c2ccco2)cc1 | 10.2%
O=C(Nc1ccccc1Cl)C1C2CCC3C(CCC21)C3(Cl)Cl (stereo not drawn) | 9.05%
C=C(C)CSc1nc2ccccc2c(=O)n1-c1c(C)n(C)n(-c2ccccc2)c1=O | 18.3%
CC(NC(=O)Cc1ccc(S(=O)(=O)N2CCOCC2)s1)c1ccc(Cl)cc1Cl (stereo not drawn) | -6.8%
O=C(COc1ccc(Cl)cc1)Nc1c(-c2cccs2)nc2ccccn12 | -14.4%
Cc1cc(N/N=C/c2ccccc2Br)nc2ccccc12 | 9.61%
Cc1ccc(-n2c(C)cc(C3N=C(N)Nc4nc5ccccc5n43)c2C)c(C)c1 (stereo not drawn) | -13.7%
